Reference: PMC4336329 (PLoS ONE, 2015)
Out of some 310,000 compounds screened, about 2,200 (0.71%) showed an effect of 50% or more. Effects have a minus sign here. The list shows a part of the results.

Target: human ether-à-go-go-related gene (hERG) potassium channel (human, UniProt Q12809)
Experiment: primary screen, population patch clamp on CHO cells stably expressing hERG

human ether-à-go-go-related gene (hERG) potassium channel, sequence (Q12809 whole entry, looked up): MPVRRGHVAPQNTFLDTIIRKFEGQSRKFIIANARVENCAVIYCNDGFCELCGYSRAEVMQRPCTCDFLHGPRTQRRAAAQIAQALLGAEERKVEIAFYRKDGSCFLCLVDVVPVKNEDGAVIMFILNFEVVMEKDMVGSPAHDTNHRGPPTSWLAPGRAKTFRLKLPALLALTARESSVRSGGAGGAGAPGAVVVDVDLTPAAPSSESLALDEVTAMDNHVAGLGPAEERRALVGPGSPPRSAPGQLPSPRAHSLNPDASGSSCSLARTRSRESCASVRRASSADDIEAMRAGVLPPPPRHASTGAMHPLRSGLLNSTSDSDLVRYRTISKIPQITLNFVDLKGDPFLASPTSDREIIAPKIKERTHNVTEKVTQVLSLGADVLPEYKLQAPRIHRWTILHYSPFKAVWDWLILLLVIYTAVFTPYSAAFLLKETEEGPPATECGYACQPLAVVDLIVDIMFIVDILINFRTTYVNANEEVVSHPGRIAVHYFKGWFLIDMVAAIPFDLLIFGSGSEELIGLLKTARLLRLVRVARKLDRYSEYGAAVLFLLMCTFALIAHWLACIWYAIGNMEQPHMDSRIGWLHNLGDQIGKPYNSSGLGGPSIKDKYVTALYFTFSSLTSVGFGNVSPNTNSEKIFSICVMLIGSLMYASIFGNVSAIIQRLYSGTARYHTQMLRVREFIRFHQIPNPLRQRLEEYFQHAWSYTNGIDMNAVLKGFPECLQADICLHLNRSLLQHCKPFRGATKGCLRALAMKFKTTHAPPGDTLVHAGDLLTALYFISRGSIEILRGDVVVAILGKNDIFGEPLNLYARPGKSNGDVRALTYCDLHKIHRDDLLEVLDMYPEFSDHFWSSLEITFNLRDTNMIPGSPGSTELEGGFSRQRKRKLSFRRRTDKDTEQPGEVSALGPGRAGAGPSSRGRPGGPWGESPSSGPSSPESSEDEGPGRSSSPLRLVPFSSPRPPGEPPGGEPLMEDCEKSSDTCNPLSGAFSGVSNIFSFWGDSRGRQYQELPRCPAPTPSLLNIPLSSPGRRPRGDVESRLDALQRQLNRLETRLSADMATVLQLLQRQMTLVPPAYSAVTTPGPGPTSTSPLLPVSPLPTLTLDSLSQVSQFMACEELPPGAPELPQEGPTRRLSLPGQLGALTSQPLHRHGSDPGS

| Compound | hERG current change (%, negative = inhibition) at 1uM |
| --- | --- |
| CC(=O)N1CN2CN(C(C)=O)CC(C(=O)c3ccc(Br)cc3)(C2)C1 | 4.24% |
| CC(C)(C)c1nc(CN2CCOCC2)ccc1O.Cl | -4.54% |
| O=C(Nc1ccc2ccccc2c1)c1ccc(Cl)cc1 | 13.2% |
| COc1ccccc1CC(=O)NNS(=O)(=O)c1ccc([N+](=O)[O-])cc1 | 7.35% |
| O=C(CCc1ccccc1)Nc1ccccc1C(=O)NCc1ccco1 | 12.1% |
| Cc1ccc(C(=O)NNC(=O)CSc2nnc(C(C)C)n2C)cc1 | 19.1% |
| O=C(COC(=O)c1cccs1)NCCCc1ccccc1 | 7.39% |
| COCCC(=O)N1CCC(Oc2ccc(C(=O)N(C)CCCC3CCCC3)cc2)CC1 | -1.26% |
| CC(=Nc1ccc(C)c(C)c1)C1=C(O)CSC1=O | 13.8% |
| CC(C)C12CN3CC(C(C)C)(CN(C1)C3c1ccccc1O)C2=O (centres unmarked) | 14.2% |
| O=C(CN1C2=NCCCN2c2ccccc21)c1cccs1 | 2.43% |
| O=C(NCC1CCCCC1)c1cccnc1Cl | 17.4% |
| O=C(COC(=O)CCc1c[nH]c2ccccc12)NCc1ccccc1 | 9.38% |
| COc1cc(-c2cc(C(=O)O)c3cc4c(cc3n2)OCCO4)cc(OC)c1OC | -14.3% |
| O=C(Nc1ccc2c(c1)OCO2)c1ccccc1SCC(=O)N1CCCC1 | 11% |
| CN(C)CCCNc1cn[nH]c(=O)c1Cl | -4.64% |
| COc1ccc(CNc2oc(-c3ccccc3)nc2C#N)cc1 | -2.27% |
| CCN(C(=O)COC(=O)c1oc2ccccc2c1C)c1c(N)n(Cc2ccccc2)c(=O)[nH]c1=O | 10.6% |
| COc1cccc(C(=O)N2CCN(S(C)(=O)=O)CC2)c1 | 13.4% |
| CCCc1n(CC(O)COCc2ccccc2)c2ccccc2[n+]1C.[I-] (centres unmarked) | 5.44% |

| Compound | hERG current change (%, negative = inhibition) at 1uM |
| --- | --- |
| Oc1[nH]c2ccc(Br)cc2c1N=Nc1ccc(C(F)(F)F)cn1 | 7.86% |
| O=C(Cn1cc[n+](CC(=O)c2ccc(Cl)cc2Cl)c1)c1ccc(Cl)cc1Cl.[Br-] | -27.8% |
| COc1ccccc1N=CC1=C(O)CC(c2ccccc2)CC1=O (centres unmarked) | 4.29% |
| Cc1cc(NC(=O)c2ccccc2[N+](=O)[O-])ccc1Br | 3.42% |
| O=C(CN1CCN(c2ccccn2)CC1)Nc1ccc(OC(F)(F)F)cc1 | -9.61% |
| CCOC(=O)C(NC(=O)c1ccccc1)(Nc1cccc(C)n1)C(F)(F)F (centres unmarked) | 15.7% |
| CCCc1cc(=O)[nH]c2nnc(SCC(=O)Nc3nnc(SCC)s3)n12 | 19.7% |
| O=C(O)c1cc(Cl)nc2ccccc12 | 7.94% |
| O=C(CSc1nnc(-c2ccco2)o1)NC1CC2CCC1C2 (centres unmarked) | 9.76% |
| CCOC(=O)C1CCCN(C(=O)c2ccc3nc(-c4cccc(OC)c4)oc3c2)C1 (centres unmarked) | 2.93% |
| CCOC(=O)CSc1nnc(CNC(=O)c2ccco2)n1-c1ccc(F)cc1 | 3.36% |
| Cc1cccc(C)c1NC(=O)CN(C1CCCCC1)S(C)(=O)=O | 9.1% |
| Cc1ccc(C(=O)O)cc1NC(=S)NC(=O)c1ccc(COc2ccccc2)cc1 | 9.45% |
| O=C(Nc1ccncc1)c1ccc2ccccc2c1 | 7.22% |
| N#CN=C1CCCCCN1CC(N)=O | 0.377% |
| COc1ccccc1C(=O)Nc1cccc(S(=O)(=O)N2CCCC2)c1 | 12.3% |
| CCOc1ccc(-c2nnn(CC(=O)NCc3cccs3)n2)cc1 | 11.3% |
| CC(C)(C)c1ccc(C(=O)OCC(=O)N2CCC(c3ccccc3)=N2)cc1 | 3.62% |
| O=C(c1ccccc1)c1n[nH]c(-c2ccccc2)cc1=O | 14.9% |
| COC(=O)CSc1nnc(NC(=O)C2CC(=O)N(c3ccc(F)cc3)C2)s1 (centres unmarked) | 10.2% |

| Compound | hERG current change (%, negative = inhibition) at 1uM |
| --- | --- |
| C/C(=N\NC(=O)NC1CCCCC1)C1CCCCC1 | 17.6% |
| COc1ccc(/C=N/NC2=NCCCCC2)cc1 | -1.05% |
| CCOC(=O)C1CCCN(S(=O)(=O)c2ccc(Cl)nc2)C1 (centres unmarked) | 5.12% |
| COc1ccc(C(=O)NCC(=O)NC2=NCCS2)cc1 | 11.3% |
| CC(C)(C)C(=O)Nc1nc2c(s1)COc1ccccc1-2 | -2.68% |
| O=C(CN(C(=O)c1csnn1)c1cccc2ccccc12)NCc1ccccc1 | 15.9% |
| CCSc1ncc(/C=N/Nc2ccc(Cl)cc2)n1C | 3.53% |
| COc1ccccc1CCNC(=O)C(=O)NCC1OCCN1S(=O)(=O)c1cccs1 (centres unmarked) | 12.1% |
| CC(C)(C)NC(=O)C(c1ccncc1)N(CC1CCCO1)C(=O)Cn1nnc(-c2ccc(F)cc2)n1 (centres unmarked) | 4.76% |
| Cl.Nc1scc(-c2ccncc2)c1Cl | 11.5% |
| O=C(Cn1cnc2c(nnn2Cc2ccccc2)c1=O)N1CCCc2ccccc21 | 5.58% |
| O=C(Cn1cnc([N+](=O)[O-])n1)NCCc1ccccc1 | 9.14% |
| COc1ccc(/C=N/Nc2nc(-c3cccnc3)nc3ccccc23)c(OC)c1 | 10.2% |
| O=C(OCc1nc2scc(-c3ccccc3)c2c(=O)[nH]1)c1ccco1 | -2.93% |
| CCCCCCOc1ccc(N2C(=O)CC(NCCc3ccc(S(N)(=O)=O)cc3)C2=O)cc1 (centres unmarked) | 16% |
| COc1ccc(NC(=O)CN(C)C(=O)CN2C(=O)NC3(CCCC3)C2=O)cc1 | 4.4% |
| CCNS(=O)(=O)c1ccc(NC(=O)Nc2ccccc2OC)cc1 | 8.91% |
| CCOC(=O)c1[nH]cnc1C(=O)Nc1ccccc1OC | 2.47% |
| COCCNS(=O)(=O)c1cc(C(=O)O)ccc1OC | 12.7% |
